The text below walks through data of publication PMC12040169 (PLOS Biology, 2025).

This is one part of the list.

For this assay, the system named is T1, C. trachomatis L2/434/Bu expressing GFP (CTL2-GFP).
T1 construct: L2/434/Bu GFP intracellular growth in HeLa cells
Also noted: species or system HeLa; C. trachomatis total inclusion area by high-content imaging, normalised to DMSO. Particulars: total inclusion area; 28.5 h, 10 µM; inhibitor. The essentials: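 High-content imaging followed the bulk GFP/resorufin measurement: fixed, Hoechst-stained cells were scored for GFP inclusions and host nuclei per well. Total inclusion area and count served as growth proxies, nuclei number as the viability proxy. MIC calculation matched the bulk assay.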
Regarding `O=C(Nc1ccc(Cc2ccncc2)cc1)c1sc2c([N+](=O)[O-])cccc2c1Cl` [CBK269635], the “% of control remaining” value was 88.7752.
Consider `Cn1c(=O)oc2cc(S(=O)(=O)Nc3cccc(CCc4ccccn4)c3)ccc21` [CBK286357], for which the “% of control remaining” value is recorded as 87.1187.
The value for `c1cn2cnnc2c(N2CCc3sccc3C2)n1` [CBK305180] was 82.9543; that for `Cc1nc(C)n(CC2CCCN(c3ncnc4ccsc34)C2)n1` (stereo not drawn) [CBK304037] was 61.4887.
`O=C(O)CCCNS(=O)(=O)c1ccc(I)cc1` [CBK269160]: the “% of control remaining” value came to 102.506.
Take `COc1ccc(-c2ccc3c(c2)C(=O)N2CC[C@H](NC(=O)CCC(=O)O)[C@H]2C(=O)N3)cc1` [CBK289331]: the “% of control remaining” value was 105.517.
The value for `COC(=O)c1c(NC(=S)Nc2ccccc2)sc(Cc2ccccc2)c1C` [CBK263501] was 108.156; that for `COc1cccc(C2C(C(=O)c3ccc(Cl)cc3)=C(O)C(=O)N2CCN2CCOCC2)c1` (stereo not drawn) [CBK264901] was 75.6217; that for `O=C(O)CNC(=O)/C(=C\c1ccccc1F)NC(=O)c1ccccc1` [CBK263961] was 95.8689.
With `O=S(=O)(c1ccccc1)n1c(CO)cc2c(C(F)(F)F)cc(CN3CCNCC3)cc21` [CBK143799], the “% of control remaining” value is reported as 93.4473.
For `Cc1ccc(CCC(=O)N(CCC#N)C2CCOCC2)c(C)c1` [CBK305809], the “% of control remaining” value is given as 50.2187.
Take `c1ccc2c(CCN3CCC(Oc4nccnc4OCCN4CCOCC4)CC3)c[nH]c2c1` [CBK082939T]: the “% of control remaining” value is given as 93.1881.
In the case of `CCc1ccc2[nH]c(=O)c(CN(CCN(C)C)C(=S)NCc3ccccc3)cc2c1` [CBK134905], the “% of control remaining” value came to 91.6014.
Take `COCCNC(=O)CC1Sc2ccccc2NC1=O` (stereo not drawn) [CBK268443]: the “% of control remaining” value was 109.823.
The value for `COc1nc(OC)nc(Sc2ccc(N)cc2)n1` [CBK019319] was 70.3655; that for `CCC(=O)NC(=S)Nc1cccc(NC(=O)c2cccc(Cl)c2)c1` [CBK058759] was 109.525.
Turning to `COc1ccc([C@@]23CC[C@@H](NC(=O)Nc4cccc(-c5nn[nH]n5)c4)C[C@@H]2N(C)CC3)cc1OC` [CBK051273T], the “% of control remaining” value was 86.8041.
Regarding `CCOC(=O)c1sc(NC(=O)c2ccccc2Br)nc1C` [CBK067745], the “% of control remaining” value is 85.6105.
Turning to `Cn1c(N)nc2c(ncn2[C@H]2C[C@@H](O)[C@@H](CO)O2)c1=O` [CBK201215], the “% of control remaining” value turned out to be 76.9748.
On to `C#C[C@H]1C[N@@]2CC[C@H]1C[C@@H]2CNS(=O)(=O)c1cccc(C#N)c1` [CBK288753], for which the “% of control remaining” value worked out at 97.2365.
Turning to `CS(=O)(=O)N(CC(=O)NCc1ccccn1)c1cc(Cl)cc(Cl)c1` [CBK266459], the “% of control remaining” value was determined as 107.226.
For `Cc1nn(C)c(C)c1CC(=O)NC1CCN(c2c(F)cccc2F)C1` (stereo not drawn) [CBK306307], the “% of control remaining” value is given as 73.4359.
On to `CNC(=O)c1ccc(-c2ccc(CNC(=O)C(C)Oc3ccc(C)c(C)c3)cc2)nc1C` (stereo not drawn) [CBK286014], for which the “% of control remaining” value was determined as 100.043.
`Cc1nn(C)c(C)c1CC(=O)Nc1nc(C(C)(C)C)cs1` [CBK250992]: the “% of control remaining” value is recorded as 48.8318.
As to `Cc1ccc(NS(=O)(=O)c2ccc(CCC(=O)N3CCc4ccccc4C3)cc2)cc1` [CBK267616], the “% of control remaining” value is 84.2136.
On to `O=C(Nc1ccc(=O)n2c1[C@@H]1C[C@@H](CN(C(=O)c3ccc(F)cc3)C1)C2)c1cncnc1` [CBK288713], for which the “% of control remaining” value is on record as 104.805.
`CCOc1c(CNCCN2CCOCC2)cccc1OC` [CBK278182C]: the “% of control remaining” value came to 121.156.
For the compound `COc1cccc(CCNC(=O)NC(=O)C2CCN(S(C)(=O)=O)CC2)c1` [CBK034860], the “% of control remaining” value turned out to be 102.954.
Turning to `Cc1cccc(-n2c(N)cc(=O)nc2SC(C)C(=O)Nc2ccc(S(N)(=O)=O)cc2)c1` (stereo not drawn) [CBK266173], the “% of control remaining” value was determined as 102.152.
As to `O=C(O)C1CCCCC1C(=O)N1CCN(Cc2cccc3ccccc23)CC1` (stereo not drawn) [CBK270293], the “% of control remaining” value was 95.9754.
For the compound `O=C1Cc2cc3ccccc3cc2C2(CCN(C(=O)c3ccccc3C(=O)O)CC2)N1` [CBK047216], the “% of control remaining” value worked out at 109.689.
For the compound `Cc1oc(C(=O)Nc2cccc(CCc3ccncc3)c2)cc1CN1CCOCC1` [CBK285547], the “% of control remaining” value came out at 123.024.
Consider `C=CCN1C(=O)C2(CC(=O)N(CC)C2=O)c2cc(F)ccc21` (stereo not drawn) [CBK075318], for which the “% of control remaining” value came out at 92.9973.
Under `COc1ccc(-n2cc(-c3ccc(F)cc3)nn2)cc1` [CBK113111] stands 101.838; under `Ic1ccc2ncnc(NCCN3CCOCC3)c2c1` [CBK265655], 85.0375; under `COc1ccccc1NC(=O)c1ccc(OC(C)C(=O)O)cc1` (stereo not drawn) [CBK266109], 148.974.
On to `CCCS(=O)(=O)N1CCN(C(=O)COc2ccc3ccccc3c2)CC1` [CBK264290], for which the “% of control remaining” value came out at 93.9305.
Turning to `COc1ccc(CC(=O)N2CCC(c3cccc(Cc4cccc(F)c4)n3)CC2)cc1` [CBK286504], the “% of control remaining” value was 113.786.
In the case of `O=C(c1cc[nH]n1)N1CCC2(CC1)Nc1ccccc1-n1cccc12` [CBK283652], the “% of control remaining” value is 83.0524.
Under `Cc1cccn2c(CN3CCC(O)CC3)c(C(=O)N3CCOCC3)nc12` [CBK306546] stands 92.5979; under `O=C(NCc1cccnc1)c1ccc(-c2ccoc2)nc1` [CBK156275], 115.822.
Regarding `CC1CCN(Cc2ccc(-c3cn(CC(=O)NCc4ccc(Br)cc4F)nn3)cc2)CC1` [CBK165756C], the “% of control remaining” value is 29.8936.
As for `O=C(NCCc1cccs1)Nc1ccc(Cl)c(C(F)(F)F)c1` [CBK043775], the “% of control remaining” value turned out to be 76.6592.
Turning to `CCOc1nccnc1N1CCNCC1` [CBK001899G], the “% of control remaining” value was 65.5966.
With `OC(CN1CCC2(CC1)CC(O)c1ccccc1O2)c1ccc(-c2ccccc2)cc1` (stereo not drawn) [CBK286347], the “% of control remaining” value amounted to 74.6764.
Turning to `O=C(Nc1nnc(C(F)(F)F)s1)c1cc(Cl)ccc1Cl` [CBK095734], the “% of control remaining” value worked out at 78.7595.
As for `CCCc1c(C(=O)NCCCN(C)C)cnn1-c1cc(Cl)cc(Cl)c1` [CBK107376], the “% of control remaining” value worked out at 90.2626.
On to `COc1cccc(NC(=O)c2sc(N)nc2-c2ccccc2)c1` [CBK072023], for which the “% of control remaining” value is 122.805.
On to `CC1(C)Cc2nc(N3CCOCC3)ncc2C(NC(=O)C2CCC2)C1` (stereo not drawn) [CBK306943], for which the “% of control remaining” value is 70.8927.
For `OC(COCc1ccc(Cl)cc1)CN1CCN(c2cccc(Cl)c2)CC1` (stereo not drawn) [CBK278315C], the “% of control remaining” value stood at 112.669.
Take `CCOC(=O)N1CCN(CC(=O)Nc2cc3c(cc2C(C)=O)OCO3)CC1` [CBK266163]: the “% of control remaining” value is listed as 116.745.
The value for `O=C1CCCN1CP(=O)(O)CN1CCCCC1` [CBK262302] was 101.617; that for `COc1ccc(Nc2cc(Cl)ccc2C(=O)Nc2ccncc2)cn1` [CBK107434] was 9.0836.
The value for `CC(N(C)CC(=O)NCc1ccc(OCC(N)=O)cc1)C(C)(C)C` (stereo not drawn) [CBK306338] was 91.4666; that for `CC(C)[C@@H](CO)Nc1nc(-c2cc(C(F)(F)F)cc(C(F)(F)F)c2)cn2ccnc12` [CBK037496] was 82.8733; that for `Cc1oc(-c2ccccc2)cc1C(=O)Nc1cc2ccccc2c(N2CCNCC2)n1` [CBK038938T] was 87.459.
Regarding `Cc1ccc(-c2csc(NC(=O)CN3C(=O)CCC3=O)n2)c(C)c1` [CBK287348], the “% of control remaining” value stood at 127.046.
In the case of `CCCc1nnc(SC(C)C(=O)N2CCCc3ccccc32)[nH]1` (stereo not drawn) [CBK306480], the “% of control remaining” value was determined as 60.369.
On to `O=C(Cn1ncc2cccn2c1=O)OCC(F)(F)F` [CBK283554], for which the “% of control remaining” value was 106.367.
Take `COC(=O)[C@@H]1Cc2ncn(C(C)C)c2CN1C(=O)CC(C)(C)C` [CBK288988]: the “% of control remaining” value worked out at 105.732.
On to `COc1ccc(CCNC(=O)CN2CCCC2Cn2cncn2)cc1` (stereo not drawn) [CBK304567], for which the “% of control remaining” value stood at 71.1914.
For `COc1cc2c(cc1OC)CN(S(=O)(=O)c1cc(C(=O)O)ccc1Cl)CC2` [CBK296923], the “% of control remaining” value came out at 88.5166.
On to `CC(C)(CO)NC(=O)COc1ccc(Cl)cc1` [CBK261833], for which the “% of control remaining” value is 99.5618.
Take `Cc1ccc(C2=CCN(CC(=O)Nc3ccccn3)CC2)o1` [CBK283634]: the “% of control remaining” value is 104.457.
Take `O=C(NCc1ccsc1)N1CCCN(Cc2ccc(Cl)cc2)CC1` [CBK305450]: the “% of control remaining” value came out at 77.7599.
The value for `CC(C)N1CC(C(=O)N(C)C)C2(CCc3ccccc3C2O)C1` (stereo not drawn) [CBK286305] was 121.38; that for `Cc1nn(C)c(C)c1CN(C)C(=O)C(C)Cn1cc(Cl)cn1` (stereo not drawn) [CBK282187] was 93.9099; that for `CCc1cc(CNS(=O)(=O)Cc2cccc(F)c2)on1` [CBK283061] was 105.289.
`OC(COc1ccc(-c2ccccc2)cc1)CN1CCN(Cc2ccccc2)CC1` (stereo not drawn) [CBK074855C]: the “% of control remaining” value worked out at 78.6728.
Under `Cc1cccn2cc(C(=O)NCCCn3cccn3)nc12` [CBK281749] stands 110.29.
The value for `N#C/C(=C\Nc1ccc(S(N)(=O)=O)cc1)c1nc(-c2cccc([N+](=O)[O-])c2)cs1` [CBK262366] was 105.462; that for `CC(=O)Nc1ccc(N2C(=O)c3ccc(S(=O)(=O)c4ccc5c(c4)C(=O)N(c4ccc(NC(C)=O)cc4)C5=O)cc3C2=O)cc1` [CBK262105] was 99.4118; that for `CCn1c(C)nc2cc(NC(=O)Cc3c(C)noc3C)ccc21` [CBK281834] was 97.821.
With `Cc1cc(NC(=O)c2cc(Cl)ccc2[N+](=O)[O-])nc2c1c(=O)oc1ccccc12` [CBK291248], the “% of control remaining” value is listed as 105.347.
In the case of `O=S(=O)(c1ccc(Cl)cc1)N1CCN(CC(O)Cn2c3ccccc3c3ccccc32)CC1` (stereo not drawn) [CBK264383], the “% of control remaining” value is on record as 113.631.
On to `COc1cccc([C@H]2CN(C(C)=O)[C@@H]3CCN(C4CCCC4)C[C@H]23)c1` [CBK283375], for which the “% of control remaining” value is 84.9293.
On to `O=C(NCc1ccccc1)c1ccc(N2CCOCC2)nc1` [CBK200244], for which the “% of control remaining” value was 124.55.
For `CCCCCCN1CCN(c2nccn(CCOc3cc(F)c(F)cc3F)c2=O)CC1` [CBK045889C], the “% of control remaining” value amounted to 58.7501.
